# Experimental data from PubChem BioAssay AID485367 (National Center for Advancing Translational Sciences (NCATS), 2010).
# Out of some 330,000 compounds screened, about 560 (0.17%) were called active. The inconclusive results got no clear call from the source; some entries with a clear call stand among them for comparison. The call rests on the fitted dose curve; in most records, active means well fitted inhibition curve with a large enough effect; inconclusive means small, poorly fitted or top-dose-only effect, or effect the other way; inactive means flat fitted curve, though single readings scatter. No potency is given beside an inconclusive call; the fits are too rough.
# Biological target: ATP-dependent 6-phosphofructokinase (Trypanosoma brucei brucei) (UniProt O15648)
# Experiment: qHTS Assay to Find Inhibitors of T. brucei phosphofructokinase; further: nearly all actives have a fitted effect of over 60% in size
# Settings: T. brucei PFK, ADP-Glo luminescence; series mostly up to 57.5 µM
# How it was run: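 ADP-Glo luminescence quantified ADP after 45 min at room temperature, with 1.25 nM T. brucei PFK, 0.1 mM ATP and 0.5 mM fructose-6-phosphate in pH 8.0 TEA buffer. qHTS titrations up to 57 µM; curves classified by quality.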
# Potency means the concentration at half of the fitted maximal effect; tags describe the fitted curve by direction and shape.
# Sequence of UniProt O15648 (O15648 whole entry, looked up): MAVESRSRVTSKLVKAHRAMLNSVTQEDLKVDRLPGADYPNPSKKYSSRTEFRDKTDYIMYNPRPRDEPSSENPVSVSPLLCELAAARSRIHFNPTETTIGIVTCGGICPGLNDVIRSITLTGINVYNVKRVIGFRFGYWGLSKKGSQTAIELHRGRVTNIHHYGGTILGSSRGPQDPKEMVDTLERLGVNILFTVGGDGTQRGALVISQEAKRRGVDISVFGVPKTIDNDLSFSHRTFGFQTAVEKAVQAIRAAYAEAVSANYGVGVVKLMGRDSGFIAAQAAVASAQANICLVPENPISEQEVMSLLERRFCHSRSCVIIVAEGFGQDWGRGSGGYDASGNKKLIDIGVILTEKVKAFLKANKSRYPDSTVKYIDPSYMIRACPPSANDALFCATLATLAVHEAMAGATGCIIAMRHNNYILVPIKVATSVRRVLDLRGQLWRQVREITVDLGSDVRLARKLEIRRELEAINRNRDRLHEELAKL
row,SMILES,Potency
1,C/C(C/C(C)=C1/SC(=S)NC1=O)=C1\SC(=S)NC1=O,"inconclusive [activator, partial curve]"
2,CN(C)CCCN(CCCN(C)C)C(=S)Nc1ccc(S(=O)(=O)N2CCOCC2)cc1,inactive
3,Cc1ccc(C(C)(C)C)c(SCC(=O)Nc2nnc(C)s2)c1,"inconclusive [activator, single point]"
4,CCCn1c(C)cc(/C=C(\C#N)C(=O)O)c1C,inactive
5,CN(C)c1ccc(C(=S)N2CCN(c3ccc([N+](=O)[O-])cc3)CC2)cc1,active: 12 µM
6,Cc1ccc2cc(C)c3nnc(SCc4ccc(C(=O)O)cc4)n3c2c1C,"inconclusive [falling, single point]"
7,COc1cccc(C(=O)Nc2ccccc2N2CCCC2)c1,inactive
8,COc1ccc(F)cc1S(=O)(=O)n1cnc2ccccc21,"inconclusive [falling, single point]"
9,CCN(N=O)[C@@H](Cc1ccccc1)CN(N=O)[C@@H](Cc1ccccc1)CN(C)N=O,"inconclusive [falling, single point]"
10,Nc1nc(-c2ccccc2)cn1N,inactive
11,O=C(CC1SC(=O)N(c2ccccc2)C1=O)Nc1ccc(Br)cc1 (stereo unspecified),active: 19 µM
12,C=CCNC(=S)Nc1cccc2[nH]ncc12,inactive
13,Cc1ccc(C=Nc2cc([N+](=O)[O-])ccc2C)s1,"inconclusive [falling, single point]"
14,OCc1nc2ccc(Cl)cc2[nH]1,"inconclusive [falling, single point]"
15,CCN1CCN(C(c2ccc(C(F)(F)F)cc2)c2ccc3cccnc3c2O)CC1 (stereo unspecified),"inconclusive [falling, single point]"
16,Cn1c(N)c(C(=O)CCl)c(=O)n(Cc2ccccc2)c1=O,inactive
17,O=C(O)c1ccccc1NS(=O)(=O)c1ccc2c3c(cccc13)C(=O)N2,"inconclusive [activator, single point]"
18,CN(C)c1ccc(/C=N\NC(=O)c2ccc(Cn3cc(Cl)cn3)cc2)cc1,active: 12 µM
19,CC1Cc2ccccc2N1C(=O)COC(=O)c1c2c(nc3ccccc13)CCCCC2 (stereo unspecified),"inconclusive [falling, single point]"
20,O=C(N/N=C/c1oc(O)c2ccccc12)c1ccccc1O,"inconclusive [activator, single point]"
21,Cc1ccc(-n2c(SCC(=O)Nc3ccc4c(c3)OCO4)nnc2-c2cccs2)cc1,"inconclusive [falling, single point]"
22,Cn1c(=O)c2c(nc(Sc3ncnn3CC(=O)NC3CCCCC3)n2C)n(C)c1=O,inactive
23,Nc1ccc(N)c(C(=O)O)c1,"inconclusive [falling, full curve]"
24,Cc1c(NC(=O)CN2CCN(c3ccc(O)cc3)CC2)c(=O)n(-c2ccccc2)n1C,"inconclusive [falling, single point]"

row,SMILES,Potency
1,Cc1ccccc1NC(=O)CSc1ccsc1[N+](=O)[O-],active: 26.9 µM
2,N#Cc1ccc(CSc2nnc(NC(=O)C3CC(=O)N(c4ccc5c(c4)OCCO5)C3)s2)cc1 (stereo unspecified),"inconclusive [falling, full curve, poor fit]"
3,Clc1cccc(Cc2ccc(Cl)nn2)c1,"inconclusive [falling, single point]"
4,CCOc1cc(Br)c(/C=C2/C(=O)N(C)C(=S)N2CC(=O)OC)cc1OC,inactive
5,COc1cccc(C(=O)OCC(=O)Nc2sc3c(c2C(N)=O)CCC3)c1O,"inconclusive [falling, single point]"
6,Fc1cc2ncn(Cc3ccccc3)c2cc1F,"inconclusive [falling, partial curve]"
7,Oc1[nH]c2ccc(Br)cc2c1N=NC(=S)N1CCOCC1,"inconclusive [falling, single point]"
8,CCOC(=O)c1c(N)ssc1=S,"inconclusive [falling, partial curve]"
9,COc1ccc(S(=O)(=O)NNC(=O)c2cc3cc4ccccc4nc3s2)cc1,"inconclusive [activator, partial curve]"
10,S=C(Nc1ccc(Cl)c(Cl)c1)N1CCOCC1,"inconclusive [falling, partial curve]"
11,O=C(O)c1cccc(-n2c(/C=C/c3ccccc3)nc3ccccc3c2=O)c1,"inconclusive [activator, single point]"
12,Cc1nn(Cc2ccc(C(=O)N3CCOCC3)o2)c(C)c1Br,"inconclusive [falling, single point]"
13,C=CCn1c(SCc2ccc(Cl)c(Cl)c2)nnc1C(CO)NC(=O)c1ccc(OC)cc1 (stereo unspecified),"inconclusive [falling, single point]"
14,Cc1cc(C)c(S(=O)(=O)N2CCN=C2c2ccccc2)c(C)c1,"inconclusive [falling, single point]"
15,Cc1cc(C)n(-c2nc(Nc3ccccc3C(F)(F)F)nc(-n3nc(C)cc3C)n2)n1,inactive
16,COC(=O)c1sc2[nH]c(=S)n(N)c(=O)c2c1C,"inconclusive [activator, single point]"
17,COc1ccc(NC(=S)NCCN2CCC(C)CC2)cc1Cl,"inconclusive [falling, single point]"
18,O=C1CCCN1CC(O)CS(=O)(=O)Cc1ccc(Cl)c(Cl)c1 (stereo unspecified),"inconclusive [falling, partial curve]"
19,O=c1cc(CN2CCN(c3ccc(O)cc3)CC2)nc2scc(-c3ccccc3)n12,"inconclusive [falling, partial curve]"
20,COc1ccc2c(c1OC)C(=O)N1N=C(c3ccc(Cl)cc3)CC21 (stereo unspecified),"inconclusive [falling, single point]"
21,COc1ccccc1-c1nn2c(-c3ccco3)nnc2s1,"inconclusive [falling, single point]"
22,O=c1cc(-c2ccccc2)[nH]n1-c1nc2ccccc2[nH]1,inactive
23,O=Cc1ccc(N2CCCC2)c([N+](=O)[O-])c1,inactive
24,O=C(COC(=O)Cc1c(Cl)cccc1Cl)NCc1ccco1,"inconclusive [falling, single point]"

row,SMILES,Potency
1,CCN(CC)c1ccc2nc3ccccc3[n+](CC)c2c1,active: 15.1 µM
2,CC[C@]12c3[nH]c4cc(-c5ccco5)ccc4c3CCN1C(=O)[C@@H](CC(=O)NC/C=C(\C)CCC=C(C)C)C[C@@H]2C(=O)N1CCN(C(=O)C2CC2)CC1,"inconclusive [falling, partial curve]"
3,CS(=O)(=O)Nc1ccccc1C(=O)OCC(=O)N1CCC(c2ccccc2)=N1,"inconclusive [falling, partial curve]"
4,O=C(O)c1ccccc1-c1ccc(/C=c2\sc3nc4cc(Br)cnc4n3c2=O)o1,"inconclusive [activator, partial curve]"
5,O=C(CCS(=O)(=O)c1ccc(Br)cc1)Nc1cc(F)ccc1F,"inconclusive [falling, single point]"
6,CCCN(C(=O)CSc1nnc(-c2ccoc2C)n1N)C1CCS(=O)(=O)C1 (stereo unspecified),inactive
7,O=C(c1ccco1)N1CCN(C(=O)c2ccc(-c3ccc([N+](=O)[O-])cc3)o2)CC1,"inconclusive [falling, single point]"
8,C[n+]1c2n(c3ccccc31)N=C(c1ccc(Cl)cc1)CS2,"inconclusive [falling, single point]"
9,Cc1nn(-c2ccccc2)c(Cl)c1C(=O)NCc1ccccc1F,"inconclusive [falling, single point]"
10,CC1=NOC(=O)/C1=C/c1ccc(-c2ccc(Cl)cc2)o1,"inconclusive [falling, single point]"
11,O=C(Cn1cnc2c(nnn2Cc2ccccc2)c1=O)NCc1ccccc1Cl,"inconclusive [falling, full curve]"
12,COc1cc(/C=C2\C(=O)N(CCC#N)N=C2C)ccc1OCC(=O)Nc1ccccc1,"inconclusive [falling, single point]"
13,c1cncc(N=c2scc(-c3cccc4ccccc34)n2CCCn2ccnc2)c1,"inconclusive [falling, single point]"
14,CN(CC(=O)Nc1cccc(F)c1)C(=O)c1cccc(-n2cccc2)c1,"inconclusive [falling, full curve]"
15,COC(=O)c1ccc(/C=N/NC(=O)c2cccc(F)c2)cc1,"inconclusive [falling, single point]"
16,O=C(c1ccccc1)N1CCN(S(=O)(=O)c2ccccc2)CC1,"inconclusive [falling, single point]"
17,COc1ccc2c(c1OC)C(=O)N1C2SC(C)(C)[C@H]1C(=O)NC(C)C (stereo partly specified),"inconclusive [activator, full curve, poor fit]"
18,Cc1ccc(S(=O)(=O)/N=c2\ccc(Cl)cn2C(F)F)cc1,inactive
19,COc1cccc(CNCCc2c[nH]c3ccccc23)c1OCc1ccc(F)cc1,inactive
20,COc1ccc(/C=C2/SC(=O)NC2=O)cc1,inactive
21,Oc1ccc(/C=N/N=C(c2ccccc2)c2ccccc2)c(O)c1O,"inconclusive [falling, single point]"
22,CCc1c(O)cc2n(c1=O)-c1ccc(Cl)cc1C2(C)C,inactive
23,O=c1c2ccccc2ncn1Cc1ccc(Cl)c(Cl)c1,"inconclusive [falling, single point]"
